Experimental data taken from PubChem BioAssay (NCATS).
Where “and” joins values, the source holds several entries; their conditions need not be identical. Equal entries are not always repeated. The shares of active, inactive and inconclusive entries below differ from those in the screen. Potencies of inconclusive entries are doubtful fits and often do not repeat. Calls of active or inactive are those of the source. The call rests on the fitted dose curve; in most records, active means well fitted cell-killing curve with a large enough effect; inconclusive means small, poorly fitted or top-dose-only effect, or effect the other way; inactive means no such curve, though single readings can be large or run the other way.

How the values were obtained:
[1] = Viability qHTS for spleen associated tyrosine kinase inhibitor (SYKi) naive MV4-11 cells (AID 1963823); settings: MV4-11 AML viability, CellTiter-Glo luminescence, 72 h; series mostly up to 45 µM; further: nearly all actives have a fitted effect of over 40% in size
In short: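 Compounds were dispensed acoustically onto plates, MV4-11 cells (SYKi-naive) added at 500 per well, and plates incubated 72 hr at 37 C. CellTiter-Glo was added and luminescence measured after 10 min.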

[2] = Viability qHTS for spleen associated tyrosine kinase inhibitor (SYKi) drug resistant MV4-11 cells (AID 1963824); settings: SYKi-resistant MV4-11 viability, CellTiter-Glo, 72 h; series mostly up to 45 µM; further: nearly all actives have a fitted effect of over 35% in size
In short: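 CellTiter-Glo luminescence, read 10 min after reagent addition, reports viability after a 72 hr compound exposure. Cells are an MV4-11 line made resistant to SYK inhibition, seeded at 500 per well onto compound-containing plates.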
Potency means the concentration at half of the fitted maximal effect; tags describe the fitted curve by direction and shape.

| SMILES | Potency [1] | Potency [2] |
| --- | --- | --- |
| COc1cc(/C=C(\C#N)C(=O)Nc2nnc(C(F)(F)F)s2)ccc1OCc1ccc(C(F)(F)F)cc1C(F)(F)F | inconclusive: 2.63 µM [cytotoxic, full curve] | inconclusive: 2.35 µM [cytotoxic, full curve] |
| COc1ccc(CCc2nc3c(C)c(-c4c(C)noc4C)c(C)cc3n2CCN2CCOCC2)cc1 | inconclusive: 14.6 µM [cytotoxic, partial curve, poor fit] | inconclusive: 11.6 µM [cytotoxic, partial curve, poor fit] |
| CC(=O)OC1CCC2(C)C(CCC3(C)C2CC=C2C4C(C)C(C)CCC4(C)CCC23C)C1(C)C(=O)O (stereo unspecified) | inconclusive: 5.63 µM [cytotoxic, partial curve] | inconclusive: 3.99 µM [cytotoxic, partial curve] |
| COC(=O)C1C(c2ccc(O)cc2)C(C(=O)O)C1c1ccc(O)cc1 (stereo unspecified) | inactive | inconclusive: 16.1 µM [cytotoxic, single point] |
| CC(=O)O[C@H]1C[C@@]2(C)[C@@H](CC[C@H]3[C@@]4(C)C=CC(=O)[C@@H](C)[C@@H]4[C@H](OC(C)=O)C(=O)[C@@]32C)/C1=C(\CCC=C(C)C)C(=O)O | inconclusive: 1.26 µM [rising, partial curve, poor fit] | inactive |
| CC(C)CC(=O)OC1OC=C(CO[C@@H]2O[C@H](CO)[C@@H](O)[C@H](O)[C@H]2O)C2CC(O)C(O)(CO)C12 (stereo partly specified) | inconclusive: 14.2 µM [cytotoxic, single point] | inactive |
| Cc1cc2c(cc1CC(=O)c1sccc1S(=O)(=O)Nc1onc(C)c1Cl)OCO2 | inactive and inconclusive: 18.6 µM [cytotoxic, partial curve, poor fit] | inactive and inconclusive: 16.4 µM [cytotoxic, single point] and inconclusive: 13.2 µM [cytotoxic, partial curve] |
| CN1[C@@H]2CC[C@H]1CC(OC(=O)c1c[nH]c3ccccc13)C2 (stereo partly specified) | inactive | inactive |
| OC[C@H]1O[C@@H](OCc2ccccc2)[C@H](O[C@@H]2OC[C@@H](O)[C@H](O)[C@H]2O)[C@@H](O)[C@@H]1O | inactive | inactive |
| C=C1CC[C@@]2(OC1)O[C@H]1CC3[C@@H]4CC=C5C[C@H](O[C@H]6OC[C@@H](O)C(O)[C@@H]6O[C@@H]6O[C@@H](C)[C@H](O)[C@@H](O[C@@H]7O[C@H](CO)[C@@H](O)[C@H](O)[C@H]7O)[C@H]6O)C[C@@H](O)[C@]5(C)C4CC[C@]3(C)[C@H]1[C@@H]2C (stereo partly specified) | inconclusive: 3.48 µM [cytotoxic, partial curve, poor fit] | inconclusive: 4.37 µM [cytotoxic, single point] |
| CN(C)C(=O)Nc1ccc(Cl)c(Cl)c1 | inconclusive: 0.0009 µM | inconclusive: 0.0019 µM [rising, full curve, poor fit] |
| C[C@@H]1CCC2C(C)(C)[C@H](O)CC[C@]2(C)[C@@]12Cc1c(O)cc3c(c1O2)CN(CCO)C3=O (stereo partly specified) | inconclusive: 7.09 µM [cytotoxic, partial curve] | inconclusive: 12.6 µM [cytotoxic, single point] |
| OC[C@]1(O)OC[C@@H](O)[C@H](O)[C@@H]1O | inconclusive: 9.44 µM [cytotoxic, partial curve, poor fit] | inconclusive: 0.133 µM [cytotoxic, full curve, poor fit] |
| O=C1c2c(O)cccc2Cc2cccc(O)c21 | inconclusive: 1.88 µM [rising, full curve, poor fit] | inactive |
| O=C(CCCCCCNC(=O)c1cnc(N(c2ccccc2)c2ccccc2Cl)nc1)NO | active: 3.32 µM | active: 2.63 µM |
| NS(=O)(=O)c1ccc(N=Nc2c(O)[nH]c3ccc(Br)cc23)cc1 | active: 0.13 µM | active: 1.03 µM |
| Cc1ccc(Cc2c(C)nc3nc(SCC(=O)NCCN4CCNCC4)nn3c2C)cc1 | inactive | inactive |
| C=C1CC23CC(=O)C4C(CO)(CO)CCCC4(C)C2CCC1C3 (stereo unspecified) | inconclusive: 14.3 µM [cytotoxic, single point] | inconclusive: 20.2 µM [cytotoxic, single point] |
